Legend:
Acetylcholinesterase [1] = molecular target: Acetylcholinesterase (Electrophorus electricus, UniProt O42275)
Cholinesterase = Cholinesterase (Homo sapiens, UniProt P06276)
Acetylcholinesterase [2] = molecular target: Acetylcholinesterase (Homo sapiens, UniProt P22303)
Acetylcholinesterase (Homo sapiens, UniProt P22303), sequence (P22303 whole entry): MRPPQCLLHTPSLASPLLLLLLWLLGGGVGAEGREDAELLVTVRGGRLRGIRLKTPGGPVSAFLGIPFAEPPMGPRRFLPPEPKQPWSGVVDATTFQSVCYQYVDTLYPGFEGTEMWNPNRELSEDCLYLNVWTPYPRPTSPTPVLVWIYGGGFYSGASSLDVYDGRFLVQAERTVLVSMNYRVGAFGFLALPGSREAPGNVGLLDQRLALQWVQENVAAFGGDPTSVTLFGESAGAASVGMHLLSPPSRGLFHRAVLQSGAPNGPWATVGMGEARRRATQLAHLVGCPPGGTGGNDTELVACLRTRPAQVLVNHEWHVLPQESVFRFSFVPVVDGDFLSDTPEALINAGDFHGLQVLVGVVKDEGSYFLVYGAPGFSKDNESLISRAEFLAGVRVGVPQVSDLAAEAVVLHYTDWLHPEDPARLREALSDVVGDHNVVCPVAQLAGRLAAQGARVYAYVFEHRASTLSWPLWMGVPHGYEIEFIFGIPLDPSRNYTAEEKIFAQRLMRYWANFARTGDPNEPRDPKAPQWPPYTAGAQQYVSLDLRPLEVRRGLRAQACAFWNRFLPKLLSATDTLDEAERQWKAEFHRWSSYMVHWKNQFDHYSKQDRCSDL

Acetylcholinesterase (Electrophorus electricus, UniProt O42275), sequence (O42275 whole entry): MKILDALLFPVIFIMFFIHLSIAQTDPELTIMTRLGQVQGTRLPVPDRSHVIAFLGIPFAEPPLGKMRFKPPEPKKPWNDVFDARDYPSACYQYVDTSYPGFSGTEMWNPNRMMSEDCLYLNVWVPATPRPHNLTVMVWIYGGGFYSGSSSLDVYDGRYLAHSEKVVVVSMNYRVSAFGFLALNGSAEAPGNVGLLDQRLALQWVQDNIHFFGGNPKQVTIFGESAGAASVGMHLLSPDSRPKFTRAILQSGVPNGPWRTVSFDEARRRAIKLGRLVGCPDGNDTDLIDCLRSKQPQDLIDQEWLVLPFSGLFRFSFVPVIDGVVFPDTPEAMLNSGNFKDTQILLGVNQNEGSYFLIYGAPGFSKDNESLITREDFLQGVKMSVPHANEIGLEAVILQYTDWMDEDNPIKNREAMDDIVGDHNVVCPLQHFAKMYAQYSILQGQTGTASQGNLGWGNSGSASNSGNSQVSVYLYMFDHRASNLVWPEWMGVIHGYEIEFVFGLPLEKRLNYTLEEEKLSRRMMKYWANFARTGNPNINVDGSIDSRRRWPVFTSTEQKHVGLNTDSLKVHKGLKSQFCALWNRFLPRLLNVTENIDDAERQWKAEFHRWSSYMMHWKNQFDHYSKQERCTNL
Cholinesterase, sequence (P06276 whole entry): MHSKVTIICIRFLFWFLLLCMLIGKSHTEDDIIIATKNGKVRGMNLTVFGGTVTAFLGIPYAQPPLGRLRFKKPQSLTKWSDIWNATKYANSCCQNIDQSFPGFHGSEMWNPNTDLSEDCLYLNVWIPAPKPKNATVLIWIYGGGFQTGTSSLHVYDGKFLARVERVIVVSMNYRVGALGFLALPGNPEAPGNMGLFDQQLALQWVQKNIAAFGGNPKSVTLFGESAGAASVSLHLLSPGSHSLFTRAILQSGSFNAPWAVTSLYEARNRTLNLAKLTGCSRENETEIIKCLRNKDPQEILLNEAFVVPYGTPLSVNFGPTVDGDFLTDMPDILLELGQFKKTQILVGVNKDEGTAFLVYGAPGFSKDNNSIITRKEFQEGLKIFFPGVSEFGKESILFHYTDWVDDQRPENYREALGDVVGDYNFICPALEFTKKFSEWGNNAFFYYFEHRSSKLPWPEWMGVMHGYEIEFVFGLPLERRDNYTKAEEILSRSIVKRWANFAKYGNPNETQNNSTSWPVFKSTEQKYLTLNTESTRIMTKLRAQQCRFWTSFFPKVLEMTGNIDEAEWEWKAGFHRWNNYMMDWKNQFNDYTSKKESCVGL

Compound	IC50 (Acetylcholinesterase [1]) [nM]	IC50 (Cholinesterase) [nM]	IC50 (Acetylcholinesterase [2]) [nM]
CCOC(=O)C1=C(C)Nc2nc3c(c(N)c2C1c1cccc([N+](=O)[O-])c1)CCCC3 (configuration not stated)	110	> 100000	191
CCOC(=O)C1=C(C)Nc2nc3c(c(N)c2C1c1ccccc1[N+](=O)[O-])CCCC3 (configuration not stated)	304	4800	338
CCOC(=O)C1=C(C)Nc2nc3c(c(N)c2C1c1ccccc1OC)CCCC3 (configuration not stated)	160	> 100000	234
CCOC(=O)C1=C(C)Nc2nc3c(c(N)c2C1c1cccc(OC)c1)CCCC3 (configuration not stated)	61	> 100000	58
CCOC(=O)C1=C(C)Nc2nc3c(c(N)c2C1c1ccc(F)cc1)CCCC3 (configuration not stated)	52	> 100000	193
CCOC(=O)C1=C(C)Nc2nc3c(c(N)c2C1c1ccc(OC)cc1)CCCC3 (configuration not stated)	–	> 100000	105

Reference: ChEMBL document CHEMBL1138213, “Novel multipotent tacrine-dihydropyridine hybrids with improved acetylcholinesterase inhibitory and neuroprotective activities as potential drugs for the treatment of Alzheimer's disease” (J Med Chem, 2006)
